Measured values reported in paper PMC4336329 (PLoS ONE, 2015).
Hit rate of the full screen: of about 310,000 compounds, about 2,200 (0.71%) showed an effect of 50% or more. The effect is printed as a negative number. This is one part of the list.

Biological target: human ether-à-go-go-related gene (hERG) potassium channel (human, UniProt Q12809)
Assay: primary screen, population patch clamp on CHO cells stably expressing hERG

Sequence of human ether-à-go-go-related gene (hERG) potassium channel (Q12809 whole entry, looked up): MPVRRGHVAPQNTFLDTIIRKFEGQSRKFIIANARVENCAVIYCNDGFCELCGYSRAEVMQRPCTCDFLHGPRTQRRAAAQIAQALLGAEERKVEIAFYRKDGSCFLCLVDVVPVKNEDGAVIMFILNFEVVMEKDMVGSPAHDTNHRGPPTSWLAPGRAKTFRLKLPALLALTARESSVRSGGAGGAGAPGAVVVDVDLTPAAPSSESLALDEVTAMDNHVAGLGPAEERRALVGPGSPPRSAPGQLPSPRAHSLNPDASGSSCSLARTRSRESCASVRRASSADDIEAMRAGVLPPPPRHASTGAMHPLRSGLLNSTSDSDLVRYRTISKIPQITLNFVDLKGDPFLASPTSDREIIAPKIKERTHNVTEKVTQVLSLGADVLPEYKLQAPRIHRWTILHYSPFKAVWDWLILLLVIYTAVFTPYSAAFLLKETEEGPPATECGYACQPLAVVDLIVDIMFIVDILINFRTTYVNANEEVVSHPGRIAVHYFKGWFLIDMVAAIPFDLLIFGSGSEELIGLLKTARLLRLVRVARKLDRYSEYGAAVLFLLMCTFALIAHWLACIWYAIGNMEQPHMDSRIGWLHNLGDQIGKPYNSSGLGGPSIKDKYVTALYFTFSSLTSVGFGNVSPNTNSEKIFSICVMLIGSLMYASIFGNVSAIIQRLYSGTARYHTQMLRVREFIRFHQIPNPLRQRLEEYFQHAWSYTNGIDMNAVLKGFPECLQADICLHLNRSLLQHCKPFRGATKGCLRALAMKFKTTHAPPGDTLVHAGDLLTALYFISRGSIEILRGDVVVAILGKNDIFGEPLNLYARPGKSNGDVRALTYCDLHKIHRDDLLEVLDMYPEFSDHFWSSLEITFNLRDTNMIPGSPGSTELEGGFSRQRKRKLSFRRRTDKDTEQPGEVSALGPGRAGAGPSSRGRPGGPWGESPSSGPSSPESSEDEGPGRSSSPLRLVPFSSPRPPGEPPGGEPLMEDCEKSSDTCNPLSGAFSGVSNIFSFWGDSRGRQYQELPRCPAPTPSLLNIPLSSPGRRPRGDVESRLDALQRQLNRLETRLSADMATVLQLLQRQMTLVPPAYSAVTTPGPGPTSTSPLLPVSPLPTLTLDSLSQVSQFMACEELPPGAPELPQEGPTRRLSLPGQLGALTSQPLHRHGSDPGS

| SMILES | hERG current change (%, negative = inhibition) at 1uM |
| --- | --- |
| Cc1ccc(/C=[N+](\[O-])c2ccccc2C)o1 | 11.3% |
| COc1ccc(S(=O)(=O)Nc2cc(C)ccn2)cc1 | 11.9% |
| CCCN1CNc2c(c(=O)[nH]c(=S)n2CCc2ccccc2)C1 | 5.67% |
| COc1ccc(-c2cnnc(N/N=C/C(C)=C/c3ccccc3)n2)cc1 | -2.09% |
| CC(C)c1onc(C(=O)NCc2ccc(F)cc2)c1[N+](=O)[O-] | -1.72% |
| CC(=O)Nc1ccc(NC(=O)c2cc(-n3cnnc3)ccc2Cl)cc1 | 9.85% |
| CCn1cc(C(=O)N(C)c2ccc(OC)cc2OC)c2cc(OC)c(OC)cc2c1=O | 5.18% |
| CCOc1ccc(OCC)c(NC(=O)C2CCCN(C(=O)c3ccc(Cl)cc3)C2)c1 (stereo not shown) | 0.365% |
| COCCNc1ncnc2c1[nH]c1ccccc12 | 4.48% |
| O=C(COCC(=O)N1CCOCC1)N1CCOCC1 | 16.4% |
| S=C(Nc1ccccc1Cl)NC1CCN(Cc2ccccc2)CC1 | 2.35% |
| CCOC(=O)CNC(=S)N1CC2C[C@@H](C1)Cn1c2cccc1=O | 19.8% |
| CC12CCC(=O)N1C(C(=O)NNC(=O)COc1ccc(Br)cc1)CS2 (stereo not shown) | 9.94% |
| CC(=O)Nc1ccc(S(=O)(=O)NCCc2csc(-c3cccnc3)n2)cc1 | 12.7% |
| Cc1cc(C(=O)NCC(=O)OCC(=O)NCCc2ccccc2)ccc1[N+](=O)[O-] | -3.61% |
| O=C(c1ccc2c(=O)n(Cc3ccc(Cl)cc3)c(=S)[nH]c2c1)N1CCOCC1 | 10.8% |
| CCc1ccc2c(CN3CC=C(c4ccccc4)CC3)cc(=O)oc2c1 | 2.85% |
| CCOC(=O)[C@@H]1[C@H]2COc3ccccc3[C@@H]2N2C(=O)N(c3ccc(OC)cc3)C(=O)[C@@]12C | 13.7% |
| CN(C)c1cccc(C(=O)OCC(=O)Nc2ccccc2Sc2ccccc2)c1 | 5.59% |
| Cc1ccc(S(=O)(=O)NCCN2CCOCC2)c(C)c1C | 12.1% |
| CC(C)CN(C(=O)COC(=O)c1ccc([N+](=O)[O-])s1)c1c(N)n(Cc2ccccc2)c(=O)[nH]c1=O | 0.568% |
| C=CCOc1c2ccc(C(=O)NCc3ccc(OC)cc3)cc2nn1C | 17.5% |

| SMILES | hERG current change (%, negative = inhibition) at 1uM |
| --- | --- |
| CCCOC(=O)c1ccc(NC(=O)Cc2cccs2)cc1 | 8.02% |
| O=C(NCc1cccnc1)c1cn(-c2ccccc2)nc1-c1ccccc1 | 3.68% |
| [N-]=C=C1C(=O)NC(=O)C([n+]2ccc(-c3ccncc3)cc2)C1c1ccccc1C(F)(F)F (stereo not shown) | 10.3% |
| COc1ccc(OC)c(CNC(=O)C2CCC(=O)N(CCCN3CCCC3=O)C2)c1 (stereo not shown) | 0.323% |
| O=C(N/N=C/c1coc2ccc(Cl)cc2c1=O)c1cc(O)cc(O)c1 | -2.05% |
| COc1cc(OC)c(NC(=O)/C=C/C(=O)O)cc1Cl | 15.4% |
| COc1ccc(NC(=O)CN(c2ccc(OC)c(Cl)c2)S(=O)(=O)c2ccccc2)c(OC)c1 | 8.68% |
| CC1CCCCC1NC(=O)C1CCCN1S(=O)(=O)c1cccc2nsnc12 (stereo not shown) | 7.85% |
| C=CCSc1nnc(-c2nnc(SCC=C)n2CC)n1CC | 16.6% |
| COc1ccc(C(=O)NC(=S)N2CCCc3ccccc32)cc1OC | 9.95% |
| Cc1cc(C)nc(N2CCCC(C(=O)NC(C)CCc3ccco3)C2)n1 (stereo not shown) | 5.51% |
| Brc1cnc2ccccc2c1N1CCCCC1 | 13.8% |
| CCCCNC(=O)c1ccc2c(c1)N(CC)C(=O)CS2 | 1.69% |
| COc1ccc(/C=N/NC(=O)CCN2CCCCC2c2cccnc2)cc1Cn1cc([N+](=O)[O-])cn1 (stereo not shown) | 2.74% |
| CCOc1ccccc1NC(=O)CSc1nnc(-c2cnccn2)n1CC | 1.28% |
| Cc1cc(C)n(-c2cc(N3CCN(C(=O)c4ccccc4C)CC3)ccc2[N+](=O)[O-])n1 | -9.21% |
| CCN1C(=O)[C@H]2[C@@H](c3ccc(C)cc3)N3C(=O)N(c4cccc(F)c4)C(=O)[C@@]3(Cc3ccc(Cl)cc3)[C@H]2C1=O | 11.7% |
| OCC1(CCOc2ccccc2)CCN(CC2=Cc3cc(Cl)ccc3OC2)CC1 | 11.8% |
| Cc1cc(=O)oc2c3c(cc(OCC(=O)NC(C)C)c12)OC(C)(C)CC3 | 6.18% |
| O=C(NCc1ccc(Cl)cc1Cl)Nc1ccccc1 | 6.66% |
| CN(C)c1cccc(C(=O)N/N=C/c2ccsc2)c1 | 6.79% |
